By IC50 is meant the dose at which the fit gives 50% viability; a fit beyond the top or the lowest dose is shown as a bound at that dose. AUC is the area under the same curve over the 256-fold range up to the top dose, as a fraction; it is 1 without any effect and falls as sensitivity rises. For some assays here: The top dose, if marked as inferred, is not printed in the source and was worked back from the curve model.
How the values were obtained:
Assay in all cases: Viability of human cancer cell lines after 72 h of drug (GDSC screen)
[1] = compound: C=C(c1ccc(C(=O)O)cc1)c1cc2c(cc1C)C(C)(C)CCC2(C)C [Bexarotene]; details: top dose 8 µM
Description: (§1)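 Human cancer cell lines in 384-well plates, medium with 10% serum, drug for 72 h over a 256-fold dose range (nine 2-fold or five 4-fold steps up to the top dose). Adherent lines were fixed and stained with the nucleic acid dye Syto60, suspension lines read with resazurin; signal relative to control wells, capped at 0 and 100%. One two-parameter sigmoid per drug and line, fitted in a mixed model over all curves with the slope shared within a line.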

[2] = compound: Oc1nc(-c2ccc(C(F)(F)F)cc2)nc2c1CSCC2 [XAV 939]; details: top dose 5 µM; top dose inferred
Description: as §1

[3] = compound: COc1cc(C(=O)NC2CCN(C)CC2)ccc1Nc1ncc2c(n1)N(C1CCCC1)C(C)CC(=O)N2C [NPK76-II-72-1]; details: top dose 10.24 µM; top dose inferred
Description: as §1

[4] = compound: COc1ccc(C(=O)CC2(O)C(=O)Nc3c(Cl)ccc(Cl)c32)cc1 [YK 4-279]; details: top dose 10 µM
Description: as §1

[5] = compound: Cc1ccc2nc(NCCN)c3ncc(C)n3c2c1 [BMS-345541]; details: top dose 16 µM
Description: as §1

[6] = compound: O=C(O)c1ccc(-c2c[nH]c3ncc(-c4ccccc4)cc23)cc1C1CCCC1 [GSK-650394]; details: top dose 16 µM; top dose inferred
Description: as §1

[7] = compound: NC(=O)Nc1cc(-c2cccc(F)c2)sc1C(=O)N[C@H]1CCCNC1 [AZD7762]; details: top dose 2 µM
Description: as §1

Cell Line	AUC [1]	IC50 [1] [µM]	AUC [2]	IC50 [2] [µM]	AUC [3]	IC50 [3] [µM]	AUC [4]	IC50 [4] [µM]	AUC [5]	IC50 [5] [µM]	AUC [6]	IC50 [6] [µM]	AUC [7]	IC50 [7] [µM]
22RV1 (prostate, adherent)	0.932	> 8	0.962	> 5	0.849	> 10.2	0.874	> 10	0.846	> 16	0.934	> 16	0.868	> 2
A431 (skin, adherent)	0.951	> 8	0.986	> 5	0.719	2.58	0.646	1.56	0.678	3.06	0.564	1.49	0.795	0.885
A2780 (ovary, semi-adherent)	0.964	> 8	0.972	> 5	0.773	4.14	0.733	2.97	0.617	2.13	0.892	> 16	0.777	0.83
ACHN (kidney, adherent)	0.945	> 8	0.96	> 5	0.964	> 10.2	0.819	6.74	0.893	> 16	0.789	8.15	0.52	0.143
AsPC-1 (pancreas, adherent)	0.975	> 8	0.874	> 5	0.923	> 10.2	0.823	> 10	0.919	> 16	0.966	> 16	0.695	0.659
C32 (melanoma, adherent)	0.968	> 8	0.976	> 5	0.987	> 10.2	0.851	8.48	0.889	> 16	0.987	> 16	0.507	0.13
C-33-A (cervix, adherent)	0.852	6.19	0.928	> 5	0.495	0.62	0.803	4.99	0.882	> 16	0.753	5.36	0.515	0.138
CAL-12T (non-small cell lung carcinoma, adherent)	0.783	3.81	0.929	> 5	0.906	> 10.2	0.689	2.27	0.699	3.9	0.606	2.03	0.707	0.518
CMK (acute myeloid leukaemia, suspension)	0.882	6.23	0.977	> 5	0.695	2.04	0.701	2.07	0.746	4.42	0.711	3.53	0.759	0.602
COLO-205 (large intestine, suspension)	0.966	> 8	0.984	> 5	0.82	5.79	0.848	7.28	0.91	> 16	0.778	6.4	0.839	1.34
COLO-800 (melanoma, adherent)	0.987	> 8	0.982	> 5	0.978	> 10.2	0.54	0.799	0.868	14	0.852	11.8	0.762	0.697
Calu-3 (lung adenocarcinoma, adherent)	0.962	> 8	0.917	> 5	0.978	> 10.2	0.812	7.18	0.972	> 16	0.791	9.32	0.932	> 2
Calu-6 (lung adenocarcinoma, adherent)	0.953	> 8	0.93	> 5	0.819	6.97	0.674	2.06	0.937	> 16	0.951	> 16	0.815	1.31
Capan-2 (pancreas, adherent)	0.983	> 8	0.769	2.3	0.982	> 10.2	0.887	> 10	0.964	> 16	0.984	> 16	0.87	> 2
DB (B-cell lymphoma, suspension)	0.954	> 8	0.81	3.05	0.659	1.88	0.626	1.46	0.73	4.96	0.934	> 16	0.84	1.64
DMS-114 (small cell lung carcinoma, adherent)	0.972	> 8	0.983	> 5	0.779	4.86	0.698	2.47	0.886	> 16	0.972	> 16	0.908	> 2
EVSA-T (breast, adherent)	0.991	> 8	0.979	> 5	0.776	3.5	0.719	2.34	0.907	> 16	0.981	> 16	0.901	1.94
Farage (B-cell lymphoma, suspension)	0.957	> 8	0.932	> 5	0.59	1.07	0.921	> 10	0.727	3.83	0.911	15.7	0.58	0.198
G-361 (melanoma, adherent)	0.795	3.54	0.981	> 5	0.927	> 10.2	0.805	4.79	0.875	14.6	0.736	4.55	0.473	0.106
